Test results from PubChem BioAssay AID624296 (National Center for Advancing Translational Sciences (NCATS), 2012).
The whole screen tested about 350,000 compounds, of which about 9,900 (2.8%) were called active. This list was built around the results that the source calls inconclusive (neither active nor inactive); the mix of calls is not that of the screen. The call rests on the fitted dose curve; in most records, active means well fitted activation curve with a large enough effect; inconclusive means small, poorly fitted or top-dose-only effect; inactive means no such curve, though single readings can be large or run the other way. Potencies of inconclusive entries are left out as doubtful fits.

Experiment: A quantitative high throughput screen for small molecules that induce DNA re-replication in MCF 10a normal breast cells. Further: nearly all actives have a fitted effect of over 50% in size. On activity, positive = re-replication: % of control where 0% means no effect.
Settings: MCF 10A DNA re-replication, Hoechst nuclear intensity, 48 h; activity, positive = re-replication: at 46.1 µM (top of the series)
Potency means the concentration at half of the fitted maximal effect; tags describe the fitted curve by direction and shape.

| Structure (SMILES) | Potency | activity, positive = re-replication |
| --- | --- | --- |
| COc1cccc(CNC(=O)CC(NC(=O)c2ccccc2)c2ccccc2)c1 (stereo not drawn) | inactive | – |
| COc1ccc2[nH]c(=O)c(CN(Cc3cccs3)Cc3nnnn3C(C)(C)C)cc2c1 | inactive | – |
| Cc1ccccc1-c1noc(CCC(=O)NCc2ccco2)n1 | inactive | – |
| CCc1c(C)nc2cc(-c3ccc(OC)c(OC)c3)nn2c1NCC1CC1 | active: 20.6 µM | – |
| COc1ccc(C2=NN(C(=O)CSc3ncccn3)C(c3ccc(C)cc3)C2)cc1 (stereo not drawn) | inconclusive [activator, single point] | – |
| CCOc1cc(-c2nc(-c3ccc(C)nc3OCC)no2)cc(OCC)c1OCC | inconclusive [activator, full curve] | – |
| CC(C)(C)NC(=O)CCN(/N=C/c1ccccc1F)C1=NS(=O)(=O)c2ccccc21 | inactive | – |
| CC1C(c2ccccc2)N(C)C(c2ccccc2)CC1(O)c1ccccc1 (stereo not drawn) | inconclusive [activator, partial curve, poor fit] | – |
| COc1ccc(NS(=O)(=O)c2ccc3oc(SC)nc3c2)cc1 | inconclusive [activator, single point] | – |
| O=C(O)C1=C[C@H](c2ccccc2)C[C@H](OCc2ccc(CO)cc2)O1 | inconclusive [activator, partial curve] | – |
| CC(=O)c1cccc(NC(=S)NC(=O)c2cccc(C)c2)c1 | inactive | – |
| Cc1nnc(-c2cnn(-c3ccccc3)c2N)n1Cc1ccccc1 | inconclusive [activator, single point] | – |
| O=C(c1cc(Cl)ccc1O)N1CCN(S(=O)(=O)Cc2ccccc2)CC1 | inconclusive [activator, single point] | – |
| Cc1ccc(Cl)cc1NC(=O)C(Cc1ccccc1)N1C(=O)C2C3CCC(C3)C2C1=O (stereo not drawn) | inactive | – |
| C=CC[C@@H](CC(=O)N(CCO)Cc1ccccc1)C(=O)NCCOC(=O)[C@H](CC=C)CC(=O)OC(C)(C)C | inactive | – |
| c1ccc(Cc2nnc(-c3ccccc3)o2)cc1 | inconclusive [activator, single point] | – |
| COc1ccc(CNC(=O)COC(=O)c2[nH]c(C)c(C(C)=O)c2C)cc1OC | inactive | – |
| O=C(Nc1cccnc1Oc1ccc(Cl)cc1)c1cccc2ccccc12 | inactive | – |
| CCCOC(=O)c1c(N)sc(C(=O)OCC)c1C | inconclusive [activator, partial curve, poor fit] | – |
| O=C(NCc1csc(-c2cccs2)n1)Nc1ccc(F)cc1F | inconclusive [activator, single point] | – |
| Cc1ccc(Cn2nnc3c(=O)n(CC(=O)NCc4ccccc4)cnc32)cc1 | active: 9.2 µM | – |
| Cc1oc2c(c1C(=O)O)C(=O)c1ccccc1C2=O | inactive | – |
| CSc1nc2nc3c(cc2c(=O)[nH]1)C(O)Oc1ccc(C)cc1-3 (stereo not drawn) | inconclusive [activator, partial curve, poor fit] | – |
| Cc1cccc(CN2C(=O)N/C(=C/c3ccc(C)s3)C2=O)c1 | active: 7.31 µM | – |

| Structure (SMILES) | Potency | activity, positive = re-replication |
| --- | --- | --- |
| C=C(C)c1cccc(C(C)(C)NC(=O)Nn2cnnc2)c1 | inconclusive [activator, single point] | – |
| Cc1oc(C(C)(C)C)cc1C(=O)N1CCCC1C(=O)O (stereo not drawn) | – | inactive: -184% [at 0.0737 µM] |
| CCOC(=O)C1=CN(C)C=C(C(=O)OCC)C1c1ccsc1 | inconclusive [activator, partial curve, poor fit] | – |
| CCOc1ccc(NC2CCCCC2NS(=O)(=O)c2ccccc2)cc1 (stereo not drawn) | inactive | – |
| O=C1CC(c2cc(Br)ccc2F)c2cc3c(cc2N1)CCC3 (stereo not drawn) | active: 1.46 µM | – |
| Cc1cccc(NC(=O)CN(CC2CCCO2)C(=O)c2ccc(S(C)(=O)=O)cc2)c1C (stereo not drawn) | inactive | – |
| O=C(O)c1cc(=S)nc[nH]1 | inactive | – |
| COc1ccccc1OCCSc1nc(C)c(Cc2ccccc2)c(=O)[nH]1 | inconclusive [activator, single point] | – |
| CN(C)/C=C/C(=O)c1ccc(OCCN(C)c2ccccn2)cc1 | inconclusive [activator, single point] | – |
| CCN(C[C@H]1N[C@@](CC)(C(=O)OC)[C@H]2C(=O)N(C)C(=O)[C@@H]12)S(=O)(=O)c1ccc(C(C)(C)C)cc1 | inconclusive [activator, single point] | – |
| COc1ccc(C(=O)C/C(=C\C(=O)c2ccc(C)cc2)c2ccccc2)cc1 | inconclusive [activator, full curve] | – |
| CCOC(=O)c1sc(=NC(=O)c2ccc(S(=O)(=O)N(C)c3ccccc3)cc2)n(C)c1C | inconclusive [activator, partial curve, poor fit] | – |
| COc1ccc(NS(=O)(=O)c2cccc(C(=O)N3CCCC(C)C3)c2)cc1 (stereo not drawn) | inconclusive [activator, single point] | – |
| COc1ccc2c(c1)Cc1sc(NC(=O)c3cccs3)nc1-2 | – | inactive: -180% [at 0.0737 µM] |
| CSc1cccc(NC(=S)N2CCC(N(C)C3CCCCC3C)CC2)c1 (stereo not drawn) | inactive | – |
| CC1CC(=O)Nc2ccccc2N1C(=O)CSc1ncnc2sccc12 (stereo not drawn) | inactive | – |
| Clc1ccc(-c2csc(N/N=C/c3ccco3)n2)cc1 | inactive | – |
| Cc1ccc(-n2c(C)cc3c2CC(C)(C)CC3=O)cc1C | inconclusive [activator, single point] | – |
| O=C(CSc1ccc(-c2ccccc2)nn1)c1cccs1 | inactive | – |
| CC(=O)Nc1ccc(S(=O)(=O)Nn2cnnc2)cc1 | inactive | – |
| N#Cc1ccc(-c2c(-c3ccccc3)ncc3cc(F)ccc23)cc1 | inconclusive [activator, partial curve, poor fit] | – |
| Cc1[nH]c2ccccc2c1CCNC(=O)c1ccc2nccnc2c1 | inconclusive [activator, partial curve, poor fit] | – |
| Cc1cccc(C(=O)N[C@H](C(=O)Nc2nc(C)cs2)C(C)C)c1 | inactive | – |
| O=c1cnnc(N/N=C/c2ccccn2)[nH]1 | inconclusive [activator, partial curve] | – |
